Test results from the RNAGym collection of RNA variant scans (doi:10.1073/pnas.2313332121).
This sample is rich in variants without activity.

B1: TPR 5TU (parent)
chain: GGAUCUUCUCGAUCUAACAAAAAAGACAAAUCUGCCACAAAGCUUGAGAGCAUCUUCGGAUGCAGAGGCGGCAGCCUUCGGUGGCGCGAUAGCGCCAACGUUCUCAACUAUGACACGCAAAACGCGUGCUCCGUUGAAUGGAGUUUAUCAUG

Variants of: B1
Experiment: polymerase ribozyme fitness, log enrichment relative to wild type (log ratio); higher = more active; in vitro selection for triplet polymerase activity
In short: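 Genotype fitness is the logarithm of its enrichment divided by wild-type enrichment, using inverse-variance-weighted averages of replicates. That logarithm is base 2. Enrichment was measured by Illumina sequencing of input and output libraries from one triplicate in vitro selection round, with frozen incubation at −7 °C, on PCR-built, transcribed mutant libraries of each subunit of a heterodimeric triplet polymerase ribozyme, retaining genotypes with ≥10 input reads and ≥1 read per output.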

Variant | polymerase ribozyme fitness (log ratio)
C8U C38G G50U A91U C96A | ≤ -4.2
C8U C43G U45A A91G A107G C131U | ≤ -4.2
C8U C43U C85A U101G C118A | ≤ -4.2
C8U C43U C85U G100A A142U | ≤ -4.2
C8U C43U C93U C99U U104G G141A | ≤ -4.2
C8U C51A G88U C93U | ≤ -4.2
C8U C54A G86A U144C C149U | ≤ -4.2
C8U C57A | -2.69
C8U C57U | -3.18
C8U C57U A60C A97U A115U | ≤ -4.2
C8U C57U A91U | ≤ -4.2
C8U C57U C75U G86A C99G U135G | ≤ -4.2
C8U C57U U61A G117A A121U U134C | -4.09
C8U C63U G86U | ≤ -4.2
C8U C69U C76G C93G U144A | ≤ -4.2
C8U C69U G70A G124A | ≤ -4.2
C8U C75U G80C G88U U90C C95G | ≤ -4.2
C8U C75U G84A G141C | ≤ -4.2
C8U C79G G84A G94C G136C A138G A150G | ≤ -4.2
C8U C85U A106U A142C | ≤ -4.2
C8U C87A | ≤ -4.2
C8U C87A A142C | ≤ -4.2
C8U C87A U127A G141C | ≤ -4.2
C8U C87G G92A A107C | ≤ -4.2

Variant | polymerase ribozyme fitness (log ratio)
C8U C95U C116G U135A | -3.94
C8U C96U | -2.69
C8U G11C C76U G88U G94C A97C U135A G140A | ≤ -4.2
C8U G25C U31A A107U | ≤ -4.2
C8U G25C U82A C87A | ≤ -4.2
C8U G42C C72U G141U | ≤ -4.2
C8U G46A C54G U77A C93U U130G G141C | ≤ -4.2
C8U G48U U55A G59A C75A C76U U145C | ≤ -4.2
C8U G50C A73G U77C G92U A107U | ≤ -4.2
C8U G59A U90C C93U U135C A142C | ≤ -4.2
C8U G71A | ≤ -4.2
C8U G74U C79U C93A G143U | ≤ -4.2
C8U G74U G83U U104G A119C | ≤ -4.2
C8U G83U | -3.5
C8U G83U G92A C108A G112C U139G | ≤ -4.2
C8U G84U | -4.13
C8U G88U G92A | ≤ -4.2
C8U G88U G94A | ≤ -4.2
C8U G141C | -2.78
C8U U9C A20U A26G A97G | ≤ -4.2
C8U U9C C27A C35A U61G G83C A110C U151G | ≤ -4.2
C8U U9G A24G C54G U101A C105U G141U | ≤ -4.2
C8U U9G C10U A30C A49C C57A C99U A120U G143U U148G | ≤ -4.2
C8U U13A A40C U44G C93G | ≤ -4.2

Variant | polymerase ribozyme fitness (log ratio)
C8U U13C A22G C93U G126A | -1.08
C8U U13G C27A A29U U55G A89G G92U G136A A150U | ≤ -4.2
C8U U45A C87U C93U C105U | ≤ -4.2
C8U U56A A89U C93U | ≤ -4.2
C8U U61A C76A G86U C93G U101C A122G | ≤ -4.2
C8U U61G C76A G88A C96U | ≤ -4.2
C8U U82G C87A | ≤ -4.2
U9A | -2.7
U9A A12C A21U U31G C95G A115G A147C | ≤ -4.2
U9A A12C A23G G42C C51A A120C A121U | ≤ -4.2
U9A A16G A30U G88A C132U G136A U144A | ≤ -4.2
U9A A16G U45A C57A C75G G83U G92A | ≤ -4.2
U9A A16G U53A G58C A110U U134C U135A | ≤ -4.2
U9A A16U A19U C27G U77C G84A G100C G133U G141A U145A | ≤ -4.2
U9A A16U C57U G70A C79A G88U C95U A119U U151A | ≤ -4.2
U9A A16U U56A G84A C131U | ≤ -4.2
U9A A17G C32G C85U C116U A120C | ≤ -4.2
U9A A17U A20G G46U A47U A52C G83A C95U | ≤ -4.2
U9A A17U A26G C79U | ≤ -4.2
U9A A17U G58A U151A | ≤ -4.2
U9A A19C C38A G86A G94C U148C | ≤ -4.2
U9A A19C G70A C93U A119C A121U C131A | ≤ -4.2
U9A A19U A41C C93U C103G A115U | ≤ -4.2
U9A A19U G68C C93U A113U | ≤ -4.2

Variant | polymerase ribozyme fitness (log ratio)
U9A A20C G88U | ≤ -4.2
U9A A21G C51U U53A G58C G71U A91G C96U | ≤ -4.2
U9A A21U A41G G59A A91C C118U | ≤ -4.2
U9A A22G G34A A106G C116U A120U | ≤ -4.2
U9A A23C A64U C79G G88U U130A A147C | ≤ -4.2
U9A A23C C32U C72G G80A G81A | ≤ -4.2
U9A A23C U31G C38U A52C G70C G71C C76U G86U C99G | ≤ -4.2
U9A A23U A49C G50A C87G A91G C103G G117A G128U U139A | ≤ -4.2
U9A A23U C32G C54G G92U U101C G140U | ≤ -4.2
U9A A23U U77A | ≤ -4.2
U9A A24C A39U G59A | ≤ -4.2
U9A A24U A52G G70C C116U | ≤ -4.2
U9A A24U A121U A122U G141A | ≤ -4.2
U9A A28G A41C A64U G80U C87A C95U C131G | ≤ -4.2
U9A A28U A37C C57A C85A | ≤ -4.2
U9A A29G A39C G42A U53A G80C G83A G92A G94C A121U | ≤ -4.2
U9A A29U C57G G94U C99G A119C | ≤ -4.2
U9A A39U A52G C79G G84C C108U | ≤ -4.2
U9A A41C C93U A97U C118U | ≤ -4.2
U9A A41C G86U U139A U144C | ≤ -4.2
U9A A64G A89U G92A C131G | ≤ -4.2
U9A A66G C75A G84A G128U U144C | ≤ -4.2
U9A A73G G84U C114G C116G G143A | ≤ -4.2
U9A A73U C85U C95A A115U C118U | ≤ -4.2

Variant | polymerase ribozyme fitness (log ratio)
U9A A91C C116G U148A | -3.93
U9A C14G A47U U56G G84A A97G | ≤ -4.2
U9A C14U A19U C27U U56A G86U C93G A97U G124U U144C | ≤ -4.2
U9A C14U A29U A66C C72A U78G G81A C96G A107C C125A | ≤ -4.2
U9A C14U A49U C51U G86U A89U | ≤ -4.2
U9A C18G A52G G58C A138G | ≤ -4.2
U9A C18U A19C C57G A73G C96U | ≤ -4.2
U9A C18U U31C G67A G88U | ≤ -4.2
U9A C27G U44A U55A C87A C105G | ≤ -4.2
U9A C32A G50A U56C C72A A98U A113G C114G | ≤ -4.2
U9A C32A U33G A49U C51U U53A C54U G84U C103A C108G C118G C149U | ≤ -4.2
U9A C32G C54A G86C U109G G136A | ≤ -4.2
U9A C38U C95G A110U U111A | ≤ -4.2
U9A C43U U55A U77A C85G | ≤ -4.2
U9A C57A C87U C93U C105U A119G A147G | ≤ -4.2
U9A C63U G71A C87U U90C A107G G133C | ≤ -4.2
U9A C85U G86U C87A G136C | ≤ -4.2
U9A C87A | ≤ -4.2
U9A C93A | -3.87
U9A C125G | ≤ -4.2
U9A G11A C14U A28U G46U | ≤ -4.2
U9A G11A C27U G84U | ≤ -4.2
U9A G11U A22U G58C A66U A98G C116U | ≤ -4.2
U9A G11U C32G C43G A49C U61C G65C C76A C103G A106C | ≤ -4.2

Variant | polymerase ribozyme fitness (log ratio)
U9A G11U G68A G83A C95A A110G | ≤ -4.2
U9A G25U C36U G50C G86A | ≤ -4.2
U9A G42C C54G C69A C76A C79G C87A A91U A98U | ≤ -4.2
U9A G48A G67U G84U C105G | ≤ -4.2
U9A G48U A52G U53A C85G C95A G152C | ≤ -4.2
U9A G58A A64U | ≤ -4.2
U9A G58C G83A C95U G141C U151C | ≤ -4.2
U9A G67U U82G | ≤ -4.2
U9A G68A A89U | ≤ -4.2
U9A G84A C149A | ≤ -4.2
U9A G86A C93U G141C | ≤ -4.2
U9A G92A U148A | ≤ -4.2
U9A G128C U139A | ≤ -4.2
U9A U13C A37C G42C C72U C85G G133C | ≤ -4.2
U9A U13G A52G A91U C95A C114U U151G | ≤ -4.2
U9A U15C G48A G50C C96A G133C | ≤ -4.2
U9A U15G G50C G94A U135C G143A | ≤ -4.2
U9A U31G U55A G84A G94C C99U | ≤ -4.2
U9A U44A C54A G58U G62C C93A A150C | ≤ -4.2
U9A U44A U45A C72U C79G G86U U102C U144C U148G | ≤ -4.2
U9A U53A U78G G86A A147C | ≤ -4.2
U9A U55A C57A A66C C79U C96G | ≤ -4.2
U9A U55A U90G G126C | ≤ -4.2
U9A U56A A60G G74U A107U | ≤ -4.2

Variant | polymerase ribozyme fitness (log ratio)
U9A U56A C95U A98U G141C G143C G152C | ≤ -4.2
U9C | -1.27
U9C A12C C57U C63U G74C A119G U146G | ≤ -4.2
U9C A12C G48U G86A U90G U109G A147U A150C U151A | ≤ -4.2
U9C A12G A20C A26U C38U U44A A113G A121C U134G A138U | ≤ -4.2
U9C A12U G68A C87A A97U | ≤ -4.2
U9C A16G A39C C51G G92C | ≤ -4.2
U9C A16G C35A G42A C99U | ≤ -4.2
U9C A16U U56A C76A C85A A91U C99G A119G | ≤ -4.2
U9C A19C A22C U56C C87A A89U G124A G141C U151A | ≤ -4.2
U9C A20U U55G A107U C116U | ≤ -4.2
U9C A21C C76A G94A C103A U144G | ≤ -4.2
U9C A22G A23C G25C G83C | ≤ -4.2
U9C A22U G50C C85G C87G A98G G141C | ≤ -4.2
U9C A23G A41C C95U | ≤ -4.2
U9C A23U C35A G50C C79G U134G | ≤ -4.2
U9C A24C A40C C93A C105G G141C | ≤ -4.2
U9C A24U A41G C75U G83A G84A C93A | ≤ -4.2
U9C A28C C32G G42A A47C A60C C85U A97U C132G G133U | ≤ -4.2
U9C A28U U31A C57A G86A A113C | ≤ -4.2
U9C A29G U55G A66G C69A G71U C79A G84A | ≤ -4.2
U9C A30G A66C G84A A150C | ≤ -4.2
U9C A37C G46C G92U U109G U145A | ≤ -4.2
